# Measurements as given in PubChem BioAssay AID445 (National Center for Advancing Translational Sciences (NCATS), 2006).
# The whole screen tested about 110,000 compounds, of which about 40 (0.04%) were called active. Inconclusive results, whose numbers are uncertain, are shown with a selection of clear calls. Calls come from the whole dose curve; as a rule, active = well fitted curve in the direction sought with a large enough effect in the signal ratio (not every such curve was filed as active); inconclusive = small, poorly fitted or top-dose-only effect, or a change in a side signal; inactive = flat fitted curve, though single readings scatter; the % refers to the signal ratio. Potencies beside an inconclusive call are fits to weak or partial responses and may not hold up.
# Experiment: IkB Signaling;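 for IkBa stabilization activation: 0% = basal untreated cells and 100% = reference inhibitor full response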
# Details: ABC-DLBCL IkBa-CBG/CBR dual luciferase ratio (green luciferase fused to IkBa over red control in OCI-Ly3 lymphoma cells), 4 h; IkBa stabilization activation: at 57.1 µM (top of the series), scaled: untreated 0%, proteasome inhibitor 100% unless noted
# Outline: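 In this assay, an IκBα–CBG68 fusion accumulates when IKK-driven degradation is blocked; native CBR normalizes for cell number. OCI-Ly3 cells were treated 4 h with compound and doxycycline, then green and red light read after Chroma-Glo addition.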
# Potency is the fitted concentration of half-maximal effect.
SMILES,IkBa stabilization activation,Potency
Cc1cccc(N2C(=O)CS(=O)(=O)C23C(=O)N(C)c2ccccc23)c1 (centres undefined),inconclusive: -0.394% [signal inhibitor],–
Nc1c(NC2CCCCC2)c2ccccc2oc1=O,inconclusive: 10.1% [signal inhibitor],–
O=S(=O)(c1ccccc1)N1CCC2(CCN(c3ccncc3)CC2)CC1,"inactive: -0.248% [at 11.4 µM, scaled: untreated 0%, proteasome inhibitor 100%]",–
NC(=O)SCC(=O)Nc1cccc(Cl)c1,inconclusive: 5.14% [signal inhibitor],–
CCc1ccc(C(=O)c2cnc3ccc(C)cc3c2S(=O)(=O)c2ccc(OC)cc2)cc1,inconclusive: 5.48% [signal inhibitor],–
CCCCc1ccc(C(=O)Nc2ccc3nc(N(CC)CC)cc(C)c3c2)cc1,inconclusive: 1.58% [signal inhibitor],–
O=C(CCCn1c(=O)c2sccc2n(Cc2ccc(F)cc2Cl)c1=O)NCc1ccc2c(c1)OCO2,inconclusive: 3.78% [signal inhibitor],–
O=C(CSc1nnc(-c2ccccc2)o1)N1CCCc2ccccc21,inconclusive: -0.126% [signal inhibitor],–
Clc1ccccc1-c1nnc2sc(-c3ccncc3)nn12,inactive: 0.723%,–
O=C(CCc1ccc(S(=O)(=O)N2CCOCC2)cc1)OCc1nc2ccccc2s1,inconclusive: 4.65% [signal inhibitor],–
Cc1onc(-c2c(Cl)cccc2Cl)c1C(=O)Nc1ccc2c(c1)OCO2,inactive: -2.25%,–
Cc1ccc(C)c(N2CCN(C(=O)Cn3nc(Cc4cccnc4)c4ccccc4c3=O)CC2)c1,inconclusive: 1.91% [signal inhibitor],–
CCOC(=O)N1CCc2c(sc3c2c(=O)n(-c2ccc(Cl)cc2)c(=O)n3CC(=O)Nc2ccccc2)C1,inconclusive: 4.81% [signal inhibitor],–
CCC(=O)Oc1cccc(C(=O)Nc2ccc(-c3nnc(-c4ccco4)o3)cc2)c1,inconclusive: 8.52% [signal inhibitor],–
COc1ccccc1-n1c(CNC(=O)c2ccccc2)nnc1SCC(=O)Nc1nnc(C)s1,–,"inconclusive: 6.31 µM [signal inhibitor, partial curve]"
CCOC(=O)c1c(C)oc2nc(C)nc(NCc3cccc(OC)c3)c12,inconclusive: -0.666% [signal inhibitor],–
CCOC(=O)c1cc(OC(=O)c2ccc(OC)c(OC)c2)n(-c2ccccc2)n1,inconclusive: 1.85% [signal inhibitor],–
COC(=O)c1[nH]c2cc(OC)ccc2c1NC(=O)CCN1CCN(c2cccc(C)c2C)CC1,–,"inconclusive: 39.8 µM [signal inhibitor, single point]"
Cc1cc(C)cc(O)c1,inactive: 1.02%,–
CCn1c(=O)cc(SCC(=O)N2CCN(c3cc(C)ccc3C)CC2)c2ccccc21,inconclusive: 5.33% [signal inhibitor],–
Cc1nc2cccnc2n1-c1cccc(C(=O)NCCc2ccc(Cl)cc2)c1,inconclusive: 0.905% [signal inhibitor],–
CCOc1ccc(CNc2ccc(N3CCCC3)cc2)cc1,inactive: 4.14%,–
O=C(CN1CCOc2ccccc21)N1CCC(Cc2ccccc2)CC1,inconclusive: 3.71% [signal inhibitor],–

SMILES,IkBa stabilization activation,Potency
CCC(=O)N1CCCc2cc(S(=O)(=O)Nc3ccc(C)c(C)c3)ccc21,inconclusive: -0.679% [signal inhibitor],–
O=C(Nc1ccc2nc(SCC(=O)N3CCCc4ccccc43)sc2c1)c1ccc(F)cc1,inconclusive: 0.954% [signal inhibitor],–
COc1ccc(OC)c(NC(=O)c2cc3ccccc3o2)c1,inactive: -1.16%,–
CCCCN(CC)C(=O)Cn1c(=O)n(-c2ccc(OCC)cc2)c(=O)c2c3c(sc21)CCCC3,inconclusive: 3.98% [signal inhibitor],–
Cc1c(C(=O)Nc2ccc(Br)cc2F)sc2ncnc(N(C)C3CCCCC3)c12,inconclusive: -0.18% [signal inhibitor],–
CCOC(=O)c1c(C)[nH]c(C)c1S(=O)(=O)NCC(=O)N(C)c1ccc(C)c(C)c1,inactive: 0.346%,–
COc1ccc(NC(=O)CSc2nc(-c3ccccc3)nc3cc(=O)[nH]n23)cc1,inconclusive: -2.8% [signal inhibitor],–
O=C(CSc1ncnc2c1oc1ccccc12)Nc1cccc(Cl)c1,inactive: 1.12%,–
CC(C)(C)c1ccc(NC(=O)CSc2nnc3scc(-c4ccccc4)n23)cc1,inconclusive: 1.92% [signal inhibitor],–
CCOC(=O)c1cnc2c(OC)cccc2c1Nc1cccc(O)c1,inconclusive: 15.3% [signal inhibitor],–
COc1ccc(Nc2nc(N)nc(C(F)(F)F)n2)c(OC)c1,inactive: -0.576%,–
CCCC1(C(=O)OCC)NC(c2ccc(N(C)C)cc2)C2C(=O)N(c3ccc(OCC)cc3)C(=O)C21 (centres undefined),inactive: 1.25%,–
COc1ccc(C(=O)Cn2nnc(-c3ccccc3NC(=O)C3CC3)n2)cc1,inconclusive: 4.35% [signal inhibitor],–
Cc1cc(C)c2c(C)c(C(=O)N3CCC(c4nc5ccccc5s4)CC3)oc2c1,inconclusive: -1.19% [signal inhibitor],–
Cc1cc(-c2nnc3n2N=C(c2ccc(-c4ccccc4)cc2)CS3)n[nH]1,inconclusive: -5.14% [signal inhibitor],–
CCOCCOC(=O)COc1ccc(N2C(=O)c3ccccc3C2=O)cc1,inactive: 2.64%,–
CS(=O)(=O)N1CCN(C(=O)c2csc3ccccc23)CC1,inactive: -3.19%,–
CN1C(=O)C2(c3ccccc31)N(c1cccc(F)c1)C(=O)CS2(=O)=O (centres undefined),inconclusive: 1.21% [signal inhibitor],–
COc1ccc(Cl)cc1NC(=O)c1c(NCc2sccc2C)sc2c1CCCC2,inconclusive: 16.5% [signal activator],–
COc1ccc(N2C(=O)CC(Cc3ccccc3)C2=O)cc1 (centres undefined),inconclusive: 5.41% [signal inhibitor],–
COc1ccc(OC)c(CNS(=O)(=O)c2c(C(=O)N3CCCCCC3)c(C)n(C)c2C)c1,inconclusive: -0.647% [signal inhibitor],–
O=S(=O)(c1ccc(Br)cc1)c1nc(-c2cccs2)oc1SCc1ccccc1F,inconclusive: -1.4% [signal inhibitor],–
O=C(Nc1cccc(F)c1)N1CC2(CCN(C(=O)c3cccc(F)c3)CC2)C1,"inactive: 0.795% [at 11.4 µM, scaled: untreated 0%, proteasome inhibitor 100%]",–

SMILES,IkBa stabilization activation,Potency
Cc1ccc(CN(C)C(=O)c2ccccc2Oc2ccccc2)o1,inactive: 3.64%,–
CCc1ccc(N(CC)C(=O)Cn2c(=O)oc3ccccc32)cc1,inconclusive: 7.14% [signal inhibitor],–
COc1cccc2cc(C(=O)NCCc3c(C)[nH]c4ccc(Br)cc34)c(=O)oc12,inconclusive: 11.7% [signal inhibitor],–
CCC(C)OC(=O)C1=C(C)NC(=O)CC1c1ccccc1OC (centres undefined),inconclusive: 3.17% [signal inhibitor],–
CCOC(=O)c1cc2c(=O)n3ccccc3nc2n(CC(C)C)c1=NC(=O)c1cc2ccccc2o1,inconclusive: 1.56% [signal inhibitor],–
O=C(CN1C(=O)CC(c2ccccc2)Sc2ccccc21)Nc1cccc(Cl)c1 (centres undefined),inconclusive: 1.41% [signal inhibitor],–
CCc1nc(N2CCCCC2C)c2oc3ccccc3c2n1 (centres undefined),inactive: 13.2%,–
CCN(C(=O)Cn1c(=O)oc2cc(Cl)ccc21)c1cccc(C(F)(F)F)c1,inconclusive: -2.45% [signal inhibitor],–
Cc1ccc(CCNC(=O)C2CCN(c3nnc(-n4cccc4CNc4ccc(C)cc4)s3)CC2)cc1,inconclusive: 0.741% [signal inhibitor],–
COc1ccc(/C=C/C(=O)Nc2nc3n(n2)C(c2ccccc2)C=C(c2ccccc2)N3)cc1 (centres undefined),inconclusive: -0.195% [signal inhibitor],–
O=C(CCn1c(=O)sc2ccccc21)Nc1nccs1,inactive: 2.32%,–
CN(Cc1ccccc1)C(=O)CSc1nc2ccccc2n1Cc1ccccc1F,inconclusive: 3.12% [signal inhibitor],–
CCc1c(C#N)c(SCc2c(C)noc2C)nc2c1C(=O)CC(C)(C)C2,inconclusive: 5.45% [signal inhibitor],–
Cc1sc2c(c1C)c(=O)n(-c1cccc(C(F)(F)F)c1)c(=O)n2Cc1ccc(F)cc1,inactive: -0.534%,–
COc1ccccc1Cc1nc2ccccc2nc1SCC(=O)Nc1cccc(Cl)c1C,inconclusive: 0.456% [signal inhibitor],–
COc1ccc(-n2c(C)c(C(C)=O)c(C(C)=O)c2C)cc1OC,inactive: 1.52%,–
COc1ccccc1N1CCN(C(=O)CCNS(=O)(=O)c2ccc3c(c2)CCN3C(=O)C2CC2)CC1,inconclusive: -2.13% [signal inhibitor],–
COc1ccc(Cl)cc1NC(=O)CSC1=Nc2ccccc2C2=NC(CC(=O)NCc3ccc4c(c3)OCO4)C(=O)N12 (centres undefined),inconclusive: 3.1% [signal inhibitor],–
O=S(=O)(CCOc1ccccc1)c1nc2ccccc2[nH]1,inconclusive: 10.7% [signal inhibitor],–
Cc1ccc(C2NC(=O)NC3=C2CCc2ccccc23)cc1 (centres undefined),inactive: -0.556%,–
Cc1c(O)c(Br)c(C)c(O)c1Br (tested in a mixture with another compound),–,"inconclusive: 3.16 µM [signal inhibitor, partial curve]"
COc1ccccc1C(=O)Nc1ccc2c(c1)nc(CN1CCCCC1)n2C,inconclusive: 2.82% [signal inhibitor],–
CCn1c(=O)n(CC)c2cc(N3CCCCC3)c(NC(=O)Nc3ccccc3C(F)(F)F)cc21,inconclusive: 1.68% [signal inhibitor],–
